In PubChem BioAssay AID1508624 (National Center for Advancing Translational Sciences (NCATS), 2021):
The campaign covered roughly 48,000 compounds. About 120 (0.25%) were called active. Roughly 4% stayed inconclusive and do not appear here. Calls come from the whole dose curve; as a rule, active = well fitted activation curve with a large enough effect; inconclusive = small, poorly fitted or top-dose-only effect, or another doubt; inactive = no such curve, though single readings can be large or run the other way. Some of the results follow.

Assay: Primary qHTS for Identification of Small Molecule Activators of Huntingtin-Antisense Promoter Activity; note: nearly all actives have a fitted effect of over 55% in size
Conditions: HEK293 HTT-AS promoter firefly luciferase reporter, 24 h; series mostly up to 57.5 µM; activity change, positive = activation: at the top concentration
Method in brief: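 Firefly luciferase signal from promoter-reporter HEK293 cells was scaled between vehicle (0%) and zero RLU (-100%). Compounds were tested at final concentrations of up to 57.5 uM over 24 h at 37 degrees C. PTC124 at 50 uM final served as control inhibitor.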

Activity change, positive = activation, inactive:
CCOC(=O)c1c(NC(=O)COc2ccccc2Br)sc2c1CCCCC2 -4.53%
Cc1ccc(-c2nnc(Nc3ccccc3)c3ccccc23)cc1S(=O)(=O)N1CCN(C)CC1 15.6% [at 11.5 µM, percent change from vehicle, -100% = no light]
CC(C)(C)c1ccc(C(=O)N(Cc2ccc(F)cc2)Cc2ccco2)cc1 -27.4%
Cc1ccc(CNC(=O)Cc2ccc(NC(=O)N3CCSc4ncccc43)cc2)cc1 -6.18%
CC(C)(C)NC(=O)N1CCC(C(=O)O)CC1 12%
CCCNC(=O)c1ccc(Cn2c(=O)c3cccn3c3cccnc32)cc1 -16.7%
CCc1ccccc1NC(=O)c1ccc2c(c1)nnn2C1CCCC1 1.4%
CCOc1ccccc1NC(=O)CN1C(=O)COc2ccc(S(=O)(=O)NC3CCCC3)cc21 -27.3%
COCCCNC(=O)CCCn1c(=O)c2cccn2c2ccccc21 -0.751%
COc1ccccc1CNC(=O)CCC1N=C2c3ccccc3N=C(SCc3ccc(Cl)cc3)N2C1=O (centres undefined) -10.4%
O=C1CCCc2cc(S(=O)(=O)NCC3CCC(C(=O)NCc4ccc(F)cc4)CC3)ccc2N1 (centres undefined) -26%
O=C(Nc1cccc(C(F)(F)F)c1)c1cccc(C(=O)Nc2cccc(C(F)(F)F)c2)c1 -30.8%
Cc1ccc(N2CCN(S(=O)(=O)c3ccc(Cl)c4ccccc34)CC2)c(C)c1 -13.6%
CCOC(=O)c1c(C)c(-c2ccccc2)n(CC(=O)Nc2cc(C)cc(C)c2)c1C -15.7%
Cc1ccc2c(Br)cc(Br)c(O)c2n1 -21%
Cc1ccc(CNC(=O)CCc2cn(Cc3ccc(C)cc3)c3ccccc23)cc1 -4.79%
CCOc1ccc(-c2cc3nc(C4CCN(C(=O)OC(C)(C)C)CC4)c(C(=O)Nc4c(C)cccc4C)cn3n2)cc1 8.89%
Cc1cc(C)c(Cn2c(=O)n(CCCCC(=O)NCc3ccccc3Cl)c(=O)c3ccccc32)c(C)c1 -12.1%
CCC(=O)Nc1ccccc1-c1nc2ccccc2n(C(CC)C(=O)Nc2cccc(Cl)c2)c1=O (centres undefined) -31.2%
CCOC(=O)c1c(C)sc(-c2c(-c3cccc(Cl)c3)[nH]c3c2c(=O)n(C)c(=O)n3C)c1O -6.35%
COc1ccc(NC(=O)C2=C(C)Nc3ncnn3C2c2ccc[nH]2)cc1 (centres undefined) -7.97%
Cc1c(C(=O)N(C)C)sc2c1c(=O)n(-c1ccc(F)cc1)c(=O)n2Cc1ccccc1C#N -3.1%
CCc1ccccc1N(C)S(=O)(=O)c1ccc2c(c1)C(C)(C)C(=O)N2C -28.1%
CC(=O)Nc1ccc(NC(=O)C2CCN(c3cnccn3)CC2)cc1 -9.77%
CC(=O)N1CCc2cc(CNC(=O)Nc3ccc(Br)c(C)c3)ccc21 -2.24%
Fc1ccc2c(c1)-c1c(cnc3cc(-c4ccc(Cl)cc4)nn13)CO2 18%
C=Cc1ccc(Cn2ccn(-c3ccc(F)c(F)c3)c(=O)c2=O)cc1 -3.28%
COc1ccc(-c2nc(CSc3nnc(C)n4c3cc3oc(C)cc34)c(C)o2)cc1OC -1.42%
CCn1cc2nc(SCc3ccc(F)cc3)n(CCc3ccccc3)c(=O)c2n1 -8.59%
CCN(CCCNC(=O)c1ccc(Sc2ccc(Cl)cc2)c(NC(C)=O)c1)c1ccccc1 -31.7%
O=C(c1cccs1)N(Cc1cccnc1)c1nc2c(F)cc(F)cc2s1 -29%
CCN(CC)S(=O)(=O)c1nnc(NC(=O)c2ccc(Br)cc2)s1 -28.8%
Cc1cc(NC(=O)Cn2c(=O)oc3cc(S(=O)(=O)N4CCCC4)ccc32)ccc1Br -25.3%
COc1ccc(CCNC(=O)C2CCCN(S(=O)(=O)c3ccc4c(c3)oc(=O)n4C)C2)cc1OC (centres undefined) -32.7%
O=S(=O)(c1ccccc1)c1nc(-c2cccc(Cl)c2)oc1N1CCOCC1 -13.3%
CC(C)(C)C(=O)CSc1nc2ccsc2c(=O)n1Cc1ccccc1Cl -18.7%
CSc1ccc(CCNC(=O)c2cc(C)nc3c2c(C)nn3-c2cccc(F)c2)cc1 -12.1%
COc1ccccc1N1CCN(c2ccc(=O)n(CC(=O)NCc3ccc(F)cc3)n2)CC1 -13.5%
O=C(OCc1cc(=O)n2nc(-c3cccs3)sc2n1)c1ccccc1Cl 20.1%
COc1cccc(CSc2nc3n(n2)C(c2ccc(C(=O)O)cc2)C(C(=O)Nc2ccccc2)=C(C)N3)c1 (centres undefined) 6.24%
CCOc1ccccc1NC(=O)CSc1nc2c(oc3ccccc32)c(=O)n1-c1ccc(F)cc1 -19.8%
Cc1c(C(=O)N2CCCCCC2)c(S(=O)(=O)NCc2ccccc2)c(C)n1C -5.45%
COc1ccc(CN(CCN(C)C)c2ccccn2)cc1 -3.05%
CCCNC(C)C(=O)Nc1ccccc1C (centres undefined) -3.26%
CCOc1ccc(CCNC(=O)c2c(C)oc3ncn(CC(C)C)c(=O)c23)cc1OCC 0.543%
CC(=O)N1CCc2c(sc3c2c(=O)n(-c2ccccc2)c(=O)n3CC(=O)Nc2cc(C)cc(C)c2)C1 -34.7%
CC(COc1ccccc1)N(CCCl)Cc1ccccc1 (centres undefined)
Nc1ncn([C@@H]2O[C@H](CO)[C@@H](O)[C@H]2O)c(=O)n1 -40%
Cc1ccc(-n2nc(C(=O)N3CCN(c4ccccc4F)CC3)c(=O)n(C)c2=O)cc1 -8.24%
O=C(NCc1ccccc1F)C(=O)NCC(c1ccc2c(c1)OCO2)N1CCOCC1 (centres undefined) -9.8%
CCc1ccc(NC(=O)CSc2nc(C)c(C(=O)Nc3ccccc3)c(-c3ccc(OC)c(OC)c3)c2C#N)cc1 -23.4%
Cc1cc(Br)ccc1NC(=O)CSc1c2c(nc3ccccc13)CCC2 -36.2%
CCCCC12CN3CC(C)(CN(C1)C3c1c[nH]c3ccccc13)C2=O (centres undefined) 0.138%
CCCCC(CC)CNC(=O)Cc1ccc(-n2c(=O)[nH]c3ccccc3c2=O)cc1 (centres undefined) -29.7%
Cc1cccc(CSc2nc3c([nH]c4ccccc43)c(=O)n2C)c1 -7.5%
CC(=O)N1c2ccc(S(=O)(=O)Nc3ccc(C)c(Cl)c3)cc2CC1C (centres undefined) -39.1%
COc1ccc(N2CCN(S(=O)(=O)c3ccc(-c4coc(C)n4)cc3)CC2)cc1 -30.9%
CCOc1ccc(CC(=O)Nc2c(C(=O)c3ccccc3)oc3ccc(Cl)cc23)cc1OCC -4.1%
COc1cc2c(cc1OC)n(CC(=O)c1cc(C)ccc1C)c(=O)n1nc(CCn3nc(C)cc3C)nc21 -16.5%
Cc1c(CCNC(=O)c2ccc(C(C)(C)C)cc2)sc2nc(-c3ccc(F)cc3)nn12 -0.0089%
CC1=C(C(=O)Nc2cccnc2)C(c2ccc(C)cc2)n2nc(SCc3ccccc3F)nc2N1 (centres undefined) -6.3%
Cc1cc(Nc2ccc(F)cc2F)nc(-n2nc(C)cc2C)n1 -19.9%
CCc1cc2c(cc3c(=O)n(CCCC(=O)NCc4cccc(Br)c4)ncn32)s1 -58.6%
Cc1ccc(NC(=O)C(CC(C)C)N2Cc3ccccc3C2=O)cc1F (centres undefined) -19.5%
CNS(=O)(=O)c1cn(CC(=O)N2CCN(c3ccc(C(C)=O)cc3)CC2)cc1S(=O)(=O)NC -8.65%
O=C(CSc1nc(=O)n(CCN2CCOCC2)c2c1CCC2)Nc1ccc(Cl)c(Cl)c1 -33.8%
O=C(Nc1ccc(F)c(Cl)c1)Nc1c[nH]c(=O)[nH]c1=O -1.97%
CC(=O)Nc1ccccc1-c1nc2ccccc2n(CC(=O)Nc2cccc(C)c2C)c1=O -0.278%
CC(CNC(=O)c1cnn(-c2ccc(F)cc2)c1-n1cccc1)c1ccccc1 (centres undefined) -45.3%
Cc1cc2c(cc1S(=O)(=O)Nc1cccc(Cl)c1C)n(C)c(=O)c(=O)n2C -27.6%
CCOC(=O)c1cc(-c2ccccc2)n(CCC(=O)Nc2ccccc2CC)c1C -11.3%
Cc1cc(C)cc(N2C(=O)CSC23C(=O)N(Cc2c(F)cccc2Cl)c2ccccc23)c1 (centres undefined) -37.4%
Cc1cccc2nc(-c3ccccn3)c(Nc3ccc(F)cc3)n12 -44.6%
COc1ccc(C2CC(=O)N(Cc3ccc(C)cc3)c3c2c(C)nn3-c2nc(C)cc(C)n2)c(OC)c1 (centres undefined) -2.79%
CCC(=O)N1c2ccccc2CC1C(=O)NCc1ccc(CC)cc1 (centres undefined) -8.36%
Cc1cc(C)cc(N(CC(=O)NCCc2ccc(Cl)cc2)S(=O)(=O)c2c(C)noc2C)c1 -5.35%
Cc1ccc2c(c1)c1c(c(=O)n(-c3ccccc3)c(=O)n1Cc1ccccc1C)n2C -14.2%
CN1CCN(C(=O)c2cnn(-c3ccc(F)cc3F)c2C2CCN(C(=O)OC(C)(C)C)CC2)CC1 -13%
COc1ccc(NC(=O)Nc2nnc(N3CCCC3)s2)cc1 46%
CC(=O)c1ccc(S(=O)(=O)NC(=O)NC2CCCCC2)cc1 -1.13%
Cc1ccc2c(=O)cc(C(=O)N(Cc3ccc(C(C)(C)C)cc3)C3CCS(=O)(=O)C3)oc2c1 (centres undefined) -13.8%
Cc1ccc(-n2ncc(C(=O)NCc3ccc4c(c3)OCO4)c2C2CCN(C(=O)OC(C)(C)C)CC2)c(C)c1 -2.03%
COC(=O)c1ccc(NC(=O)c2cc(S(=O)(=O)N3CCOCC3)cn2C)cc1 -8.38%
Cc1ccccc1OCC(=O)Nc1ccc(S(=O)(=O)N(Cc2ccccc2)c2ccccc2)cc1 -3.03%
CC(=O)Nc1ccc(NS(=O)(=O)c2c(C(=O)N3CCCCCC3)c(C)n(C)c2C)cc1 -8.84%
CN(C)c1ccc(NC(=O)Cn2c(SCc3ccc(F)cc3)nc3ccncc32)cc1 -7.66%
COc1ccc(CCNC(=O)CSc2cn(CCNC(=O)c3c(F)cccc3F)c3ccccc23)cc1OC -28.6%
COc1ccc(Cn2c(=O)c3oc4ccccc4c3n(CC(=O)Nc3c(C)cccc3C)c2=O)cc1 -4.29%
Cc1oc2cc3oc(=O)c(CCC(=O)NCCc4ccccc4F)c(C)c3cc2c1C 15.7%
COc1ccc(-c2nc3c(c(SCc4ccc(Br)cc4)n2)Cc2c(CO)cnc(C)c2O3)cc1 -13.9%
Cc1ccc(OCCSc2nnc(-c3cccs3)o2)cc1 6.02%
O=C(CSc1nc2ccccc2n1Cc1cccc(F)c1)NCc1ccccc1 -30.3%
CCOC(=O)c1sc2ncn(CC(=O)Nc3ccc(OC)c(Cl)c3)c(=O)c2c1C 0.282%
COc1ccc(-c2nc3sc(CCNC(=O)C(=O)Nc4ccc(OC)c(OC)c4)c(C)n3n2)cc1 9.95%
